Source: the supplement of paper PMC3334620
In all, about 33,000 sequences were measured (“E-score (-0.5 to 0.5)”: median about -0.021, highest 2% from about 0.32 on). The list shows a part of the results.

These sequences were tested against T1, Zap1 (UniProt P47043) (assay: PBM E-score (8-mer binding enrichment) (E-score (-0.5 to 0.5)); higher = stronger / more preferred TF binding; most listed sequences are background and not binding sites). Conditions: protein concentration: 200 nM; construct: GST-full length.
T1 sequence: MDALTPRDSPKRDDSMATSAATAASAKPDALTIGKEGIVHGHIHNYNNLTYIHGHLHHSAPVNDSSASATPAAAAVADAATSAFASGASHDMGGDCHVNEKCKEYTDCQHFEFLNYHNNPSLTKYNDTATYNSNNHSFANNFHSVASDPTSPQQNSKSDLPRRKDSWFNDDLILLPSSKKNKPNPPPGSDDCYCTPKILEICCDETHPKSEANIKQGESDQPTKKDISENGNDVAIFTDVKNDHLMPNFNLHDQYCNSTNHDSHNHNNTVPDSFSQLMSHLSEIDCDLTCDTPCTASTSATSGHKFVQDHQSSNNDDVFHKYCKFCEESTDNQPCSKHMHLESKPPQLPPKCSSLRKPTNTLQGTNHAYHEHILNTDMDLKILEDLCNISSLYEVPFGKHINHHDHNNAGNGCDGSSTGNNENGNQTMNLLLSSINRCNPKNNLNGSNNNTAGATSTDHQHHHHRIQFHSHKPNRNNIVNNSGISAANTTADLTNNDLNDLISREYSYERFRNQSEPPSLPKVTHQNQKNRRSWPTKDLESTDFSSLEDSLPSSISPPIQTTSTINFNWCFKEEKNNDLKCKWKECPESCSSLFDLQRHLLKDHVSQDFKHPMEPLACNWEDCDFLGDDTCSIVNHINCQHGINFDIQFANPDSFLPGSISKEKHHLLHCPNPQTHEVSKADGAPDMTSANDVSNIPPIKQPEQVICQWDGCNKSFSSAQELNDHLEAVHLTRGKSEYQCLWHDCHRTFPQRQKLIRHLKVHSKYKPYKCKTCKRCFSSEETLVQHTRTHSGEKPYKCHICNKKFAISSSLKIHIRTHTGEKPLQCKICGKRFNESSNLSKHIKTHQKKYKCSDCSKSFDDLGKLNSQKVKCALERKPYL
Method in brief: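 Each ungapped eight-base word and its reverse complement, pooled, received an E-score from the Universal PBM Analysis Suite. Underlying scans, normalised with masliner, recorded fluorescent anti-GST bound to GST-tagged yeast transcription factors. These were applied at about 100-200 nM to universal all-10-mer Agilent arrays double-stranded by primer extension.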

Sequence	PBM E-score
CACGTGGA	0.0481
CGCCCTAG	-0.00248
TTGAACAA	-0.0174
AAAGTGTA	-0.0268
TCGCTTAA	-0.0306
AGACCGTA	-0.0329
CAAGGATC	0.0812
CCCGGCAG	-0.1
ATGCGTGG	-0.122
ACTAGATC	-0.115
GACCTCGA	0.277
ACCTAACG	-0.0112
ATCTAAGG	-0.0157
ATCCGTGA	0.0221
ACATCTCA	-0.0391
ATTACCAG	0.0782
ACGGGTCC	0.235
TTCTAGAA	0.117
ACAACTGG	0.0472
ATAAGACG	-0.141
TATCCTGA	0.0914
ACCGCGCG	0.252
GATATCCA	0.0606
ATCAAAAA	0.114
CGTGACTC	-0.224

Sequence	PBM E-score
CGTCACAC	-0.237
CAGCAGGG	0.0778
CCCTCCAC	0.0534
AACATTAG	-0.0851
TACAAAAA	0.224
CAGACGGC	-0.198
GCACAGGC	-0.26
CGGGCCGC	-0.0922
AGCAGGCG	-0.133
GACGTTGA	-0.148
CCCCGACA	0.00221
AATTCCGT	-0.0101
CCTCACGC	-0.0248
ACGTACCT	-0.126
TGAGCACA	-0.186
CAATTCAC	0.0154
ACGCATGA	-0.231
CGGTGCAA	0.0851
TGCCGCAA	0.135
ACCAAGTC	0.0417
CTCACCAG	0.0211
TATGAGAA	0.00136
AGGAACAT	0.00486
CTCAGCTA	-0.00828
AGAAACTA	-0.0549

Sequence	PBM E-score
GATCAATA	0.0255
CGTCCACG	-0.181
ATAATTCG	0.0985
CAAGTAGC	-0.129
CGGGCTAC	-0.076
AGCTTTTA	-0.171
CTAACTGA	0.036
GCGTGGAC	-0.142
CGTGTCTA	-0.167
ACCATGGA	-0.0928
TGTACTAA	0.0782
GCGACGCA	-0.0439
ACGCGAAC	0.0863
CGAGATAC	0.112
GAAATACA	0.116
GTGGTCAA	0.201
AAGAAGAG	-0.0898
AGTCCACC	-0.0123
AGTGGGCA	-0.0621
CTCTGGGA	-0.169
AGGGCCGC	-0.171
ACTTTCGC	-0.127
AACCAGGT	0.201
GAAGTTCA	-0.105
AACCGCGC	0.24

Sequence	PBM E-score
CGATGCGA	-0.0439
CTAGCTAG	0.0873
GAAACAAA	0.13
AGGTGGAG	-0.216
AGACGACC	0.124
AAAGAAAG	0.0165
AATTCTCA	-0.0866
GCTAGTCC	-0.307
AGCGACCT	-0.0823
AATAGCAT	-0.0685
AGCTCTGA	-0.211
ATTTCTCG	0.176
ATCGTGGC	-0.145
GGGGATTA	-0.017
TGCAAAAA	0.0645
CCGGTTGA	-0.0219
GGCTGATA	-0.158
AGGAGCGC	-0.151
ACGAGCGG	-0.152
GTACGGAC	0.0497
GGCTGCCC	-0.0432
GAATTACC	0.167
GCGCCAGC	-0.267
AAATGGAT	-0.134
ACAGGGGG	-0.225

Sequence	PBM E-score
CAACCAGC	-0.0722
ATCCCGGA	0.0882
CGAGTATC	-0.115
CGTTTCAG	0.0527
AGCATGAG	0.00126
CATTTACC	0.0957
ACGTACCC	0.0365
CACAGTCA	-0.14
AATATGTG	0.0468
CCTTATAA	0.194
CGTCAAAG	-0.0547
TCAGCGGA	-0.0896
CATTCATC	-0.0992
CGAAAACG	0.0386
GTGTGGGA	-0.218
CGGATGGA	-0.0655
GCCTTATA	-0.00564
AATGATCT	-0.0272
CAGGCATC	-0.239
CCAAAAGC	-0.0282
AGCATACC	0.0696
AGGATTAT	0.0182
ACAACTCG	0.0898
ATCGAACC	-0.0318
ACAGTACC	0.219

Sequence	PBM E-score
GTCTGACA	-0.172
ACGCGTCA	0.0028
ACCCAGGG	0.0854
TAACATCA	0.0842
GAATCCGC	-0.227
TAGGACGA	-0.113
CCGACCGC	-0.147
AGACCGTG	0.149
ACGTGAGC	-0.116
GTCTTGCA	-0.05
GCATCACA	-0.121
AGCTCGCC	-0.186
GCATCGAA	-0.205
AATCTACT	0.118
CTGCGGGA	-0.242
ATTCGTGG	0.0814
GCCTACAC	0.0348
CGAAACAG	-0.0571
TGCGTGAA	0.0192
GCTACCAC	0.107
CAGCTGTC	0.0518
AGGTGCAT	-0.0526
AACACCGA	0.053
AAGGGGTA	0.334
AGACATGC	-0.215

Sequence	PBM E-score
AACTCTCC	-0.175
CGACTACG	-0.135
CTGATACA	-0.0472
CGCAGATC	-0.115
AAACTCAT	0.00451
AGCCACAC	-0.00197
TAAACTCA	0.00603
CGGCGCCG	-0.00397
CGAGTCAA	-0.118
CTAGACTC	-0.231
ATGCATGA	-0.0209
AAGCCTAA	0.0918
ATACCGTC	0.142
CAATTGTG	0.0921
CATGAGCA	-0.148
AAGTCTCC	-0.348
AAGTCATT	-0.224
CAATGAGC	-0.126
TATAAAAA	0.312
AGAGGTAG	0.141
CGGCGTCC	-0.0162
AGTCGCCC	-0.181
ACCGCTAC	0.161
CGAGCCCA	-0.0447
CTCGAGAA	0.1

Sequence	PBM E-score
AGTAGTTA	0.11
GTAAAACA	0.0857
AGTCGGAT	-0.141
CGCTATGA	-0.0837
ATGCTAGG	-0.159
GCTGGTAA	-0.114
CGGCATCA	-0.166
CGTAATGA	-0.0487
ATAAGGAT	0.137
ACAGCTTA	-0.0516
CTTGAAGA	-0.0672
ACTATACA	-0.0207
CGAGGGTA	0.371
TAATATGA	0.151
TGATCCAA	0.0739
ATTGCGTA	-0.0693
AAGTGGCC	0.0931
AAGTACTA	0.0859
AATGACGT	-0.0682
CATCCGCG	-0.0398
ATAGCTAT	-0.0468
ACTTTGAC	-0.0229
ATGAAGCA	0.02
GATTCCTA	0.0308
AACCCAAC	0.282

Sequence	PBM E-score
ACTAGAAA	0.169
TAGTCCCA	-0.147
AGCGCATG	-0.227
CATTAGCG	0.0314
ATGCTCAG	0.00395
AGCAGAAA	0.163
AGAGATGA	-0.151
CTCAATAC	0.172
GTTCATGA	0.127
GGTCAACA	0.211
CATTTTGC	-0.0493
CATCAACC	0.168
AACCAGCG	0.205
AGGGATAC	0.163
CCTTTTCC	0.0501
GTTGCTGA	0.0285
ACAAACAC	0.14
GGAGATGA	-0.13
CGCTACCA	0.11
